This note sets out measurements from publication PMC2991254.

Protein sequences, listed by entry. Tags and fused reporters are not part of them. Lines headed by an entry give the natural chain unless they say otherwise; changes in a name come on top. Chains listed by the source or under a name are the forms on record and can include a tag or linker.
UniProt O82743: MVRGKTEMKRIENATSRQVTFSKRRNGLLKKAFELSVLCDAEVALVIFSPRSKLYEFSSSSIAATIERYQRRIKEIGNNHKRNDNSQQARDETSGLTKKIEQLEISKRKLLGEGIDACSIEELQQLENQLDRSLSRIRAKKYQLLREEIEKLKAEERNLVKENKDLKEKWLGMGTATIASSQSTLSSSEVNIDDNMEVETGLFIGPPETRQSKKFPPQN
UniProt O64645: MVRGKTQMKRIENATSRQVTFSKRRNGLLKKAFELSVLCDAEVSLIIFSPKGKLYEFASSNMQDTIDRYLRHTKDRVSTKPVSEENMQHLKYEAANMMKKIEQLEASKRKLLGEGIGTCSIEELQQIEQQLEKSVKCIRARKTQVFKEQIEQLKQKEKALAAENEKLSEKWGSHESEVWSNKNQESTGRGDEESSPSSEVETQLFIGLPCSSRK
UniProt Q39081: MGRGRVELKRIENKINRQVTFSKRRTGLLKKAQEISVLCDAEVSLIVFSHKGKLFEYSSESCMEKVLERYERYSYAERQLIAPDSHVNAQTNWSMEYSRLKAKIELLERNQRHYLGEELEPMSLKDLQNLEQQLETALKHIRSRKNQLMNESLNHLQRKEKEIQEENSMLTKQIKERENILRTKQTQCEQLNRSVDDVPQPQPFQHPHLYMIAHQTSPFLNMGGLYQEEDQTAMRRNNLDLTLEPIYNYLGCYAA
UniProt Q9S7Q7: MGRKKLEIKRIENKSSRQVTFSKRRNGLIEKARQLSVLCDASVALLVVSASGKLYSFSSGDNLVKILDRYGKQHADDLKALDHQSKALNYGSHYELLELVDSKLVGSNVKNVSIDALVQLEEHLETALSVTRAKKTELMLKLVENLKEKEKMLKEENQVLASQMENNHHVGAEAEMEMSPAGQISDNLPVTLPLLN
UniProt O22456: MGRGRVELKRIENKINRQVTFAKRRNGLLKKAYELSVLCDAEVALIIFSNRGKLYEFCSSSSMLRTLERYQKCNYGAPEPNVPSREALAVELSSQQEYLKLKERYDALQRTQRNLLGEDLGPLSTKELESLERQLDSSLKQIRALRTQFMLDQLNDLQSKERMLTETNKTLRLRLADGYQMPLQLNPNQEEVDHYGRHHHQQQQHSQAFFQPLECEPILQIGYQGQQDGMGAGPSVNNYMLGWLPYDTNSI
UniProt P29386: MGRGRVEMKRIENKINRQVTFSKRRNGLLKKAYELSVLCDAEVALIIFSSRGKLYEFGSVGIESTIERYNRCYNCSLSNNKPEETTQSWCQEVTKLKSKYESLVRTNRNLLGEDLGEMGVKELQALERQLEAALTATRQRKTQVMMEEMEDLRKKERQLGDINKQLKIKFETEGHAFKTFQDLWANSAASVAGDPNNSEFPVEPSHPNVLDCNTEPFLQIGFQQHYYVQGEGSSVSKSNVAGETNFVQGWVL
UniProt P29381: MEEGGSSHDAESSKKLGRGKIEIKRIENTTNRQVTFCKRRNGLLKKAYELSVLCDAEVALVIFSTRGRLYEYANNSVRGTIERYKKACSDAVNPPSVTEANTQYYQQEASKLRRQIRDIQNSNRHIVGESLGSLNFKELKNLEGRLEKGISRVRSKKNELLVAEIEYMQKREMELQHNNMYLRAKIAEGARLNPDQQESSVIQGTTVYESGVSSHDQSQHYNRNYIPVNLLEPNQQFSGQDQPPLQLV
UniProt P29382: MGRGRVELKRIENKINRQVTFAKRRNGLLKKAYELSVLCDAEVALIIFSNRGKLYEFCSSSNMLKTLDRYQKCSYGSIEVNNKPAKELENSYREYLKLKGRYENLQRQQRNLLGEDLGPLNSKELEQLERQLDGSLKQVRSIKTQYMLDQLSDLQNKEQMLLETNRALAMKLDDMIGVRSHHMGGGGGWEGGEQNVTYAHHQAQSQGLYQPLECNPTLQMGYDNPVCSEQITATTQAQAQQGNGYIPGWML
UniProt Q38836: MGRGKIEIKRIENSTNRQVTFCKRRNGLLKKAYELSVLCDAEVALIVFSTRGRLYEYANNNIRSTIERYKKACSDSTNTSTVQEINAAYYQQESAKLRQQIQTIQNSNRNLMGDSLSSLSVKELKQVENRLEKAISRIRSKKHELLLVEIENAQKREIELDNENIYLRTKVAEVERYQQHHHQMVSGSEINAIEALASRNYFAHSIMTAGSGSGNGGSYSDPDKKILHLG
UniProt Q9SZJ6: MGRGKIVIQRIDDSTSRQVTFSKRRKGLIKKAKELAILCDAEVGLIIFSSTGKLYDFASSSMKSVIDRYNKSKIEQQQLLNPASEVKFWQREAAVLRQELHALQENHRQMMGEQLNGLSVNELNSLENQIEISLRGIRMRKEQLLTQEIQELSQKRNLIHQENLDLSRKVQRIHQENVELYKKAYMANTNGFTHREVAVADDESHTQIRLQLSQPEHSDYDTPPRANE
UniProt P17839: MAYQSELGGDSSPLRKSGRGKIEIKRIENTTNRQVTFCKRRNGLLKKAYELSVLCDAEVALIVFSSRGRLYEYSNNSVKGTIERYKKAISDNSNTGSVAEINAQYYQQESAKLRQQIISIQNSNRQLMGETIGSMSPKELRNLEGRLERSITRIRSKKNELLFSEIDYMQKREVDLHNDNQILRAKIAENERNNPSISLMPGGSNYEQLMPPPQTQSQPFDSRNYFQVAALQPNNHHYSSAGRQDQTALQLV
UniProt O82794: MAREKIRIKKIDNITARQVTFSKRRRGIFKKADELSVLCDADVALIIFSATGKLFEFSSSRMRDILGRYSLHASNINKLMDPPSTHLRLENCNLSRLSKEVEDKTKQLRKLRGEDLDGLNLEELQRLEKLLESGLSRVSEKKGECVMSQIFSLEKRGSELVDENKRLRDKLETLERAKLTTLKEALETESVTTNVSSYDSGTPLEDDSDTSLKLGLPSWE
AGL14 SIPK62-65MQD (Q38838, form named): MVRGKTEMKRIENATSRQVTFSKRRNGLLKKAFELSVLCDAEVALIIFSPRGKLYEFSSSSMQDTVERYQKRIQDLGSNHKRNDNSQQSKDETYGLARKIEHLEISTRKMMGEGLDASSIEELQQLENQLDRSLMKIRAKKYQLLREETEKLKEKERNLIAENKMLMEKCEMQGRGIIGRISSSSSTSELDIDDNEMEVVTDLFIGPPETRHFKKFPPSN
UniProt P35631: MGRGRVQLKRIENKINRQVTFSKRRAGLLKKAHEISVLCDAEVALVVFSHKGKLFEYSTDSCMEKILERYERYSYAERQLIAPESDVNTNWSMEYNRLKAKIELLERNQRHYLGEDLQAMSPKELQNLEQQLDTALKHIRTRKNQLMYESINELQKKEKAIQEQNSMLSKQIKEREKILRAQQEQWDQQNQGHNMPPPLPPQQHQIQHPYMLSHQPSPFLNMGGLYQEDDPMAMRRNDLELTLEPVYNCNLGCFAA

These are yes or no findings as the source states them, for the method shown. Some binding calls cover weakened binding; strength is not graded here.

Common to all, as to test: two-hybrid; matrix-based yeast two-hybrid, GAL4-AD and GAL4-BD fusions (pDEST22, pDEST32), in duplicate, at least two reporter genes; medium lacking Leu, Trp and His with 1 mM 3-amino-1,2,4-triazole, growth scored after 4 days at 20°C
On the technique in general: In a reporter assay the amount or activity of a reporter protein is the signal.

The target in experiment [1] is AGL19 (Arabidopsis thaliana) (UniProt O82743).
In experiment [2] the target is SUPPRESSOR OF OVEREXPRESSION OF CO 1 (Arabidopsis thaliana) (UniProt O64645).
The target in experiment [3] is CAULIFLOWER (Arabidopsis thaliana) (UniProt Q39081).
The target in experiment [4] is FLOWERING LOCUS C (Arabidopsis thaliana) (UniProt Q9S7Q7).
For experiment [5], the target named is T1, XAL1 (Arabidopsis thaliana) (UniProt Q38841).
T1 sequence: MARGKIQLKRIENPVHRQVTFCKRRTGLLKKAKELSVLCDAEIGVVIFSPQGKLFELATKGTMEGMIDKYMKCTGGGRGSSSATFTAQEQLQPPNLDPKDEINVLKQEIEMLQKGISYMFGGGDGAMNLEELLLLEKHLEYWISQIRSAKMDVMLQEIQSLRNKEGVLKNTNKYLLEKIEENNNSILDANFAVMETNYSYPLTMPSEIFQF

For experiment [6], the target named is SEP3 (Arabidopsis thaliana) (UniProt O22456).
Experiment [7] addresses AGL6 (Arabidopsis thaliana) (UniProt P29386).
Experiment [8] addresses SHORT … PHASE (SVP1) (Arabidopsis thaliana) (UniProt Q9FVC1).
Experiment [9] concerns the target …OOF1 (Arabidopsis thaliana) (UniProt P29381).
The target of experiment [10] is T2, AGL15 (Arabidopsis thaliana) (UniProt Q38847).
T2 sequence: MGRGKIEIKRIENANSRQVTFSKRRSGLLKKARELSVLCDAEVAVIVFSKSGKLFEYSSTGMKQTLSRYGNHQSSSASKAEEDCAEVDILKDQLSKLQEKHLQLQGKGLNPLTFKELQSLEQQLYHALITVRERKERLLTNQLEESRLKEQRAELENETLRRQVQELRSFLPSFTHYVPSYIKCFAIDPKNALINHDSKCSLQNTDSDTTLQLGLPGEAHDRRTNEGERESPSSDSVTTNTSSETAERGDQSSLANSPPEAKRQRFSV

Experiment [11] has as its target SEP1 (Arabidopsis thaliana) (UniProt P29382).
The target in experiment [12] is … (Arabidopsis thaliana) (UniProt Q38836).
Experiment [13] addresses AGL21 (Arabidopsis thaliana) (UniProt Q9SZJ6).
In experiment [14] the target is AGAMOUS (Arabidopsis thaliana) (UniProt P17839).
The target of experiment [15] is AGAMOUS-LIKE24 (Arabidopsis thaliana) (UniProt O82794).

With “AGL14 SIPK62-65MQD (from UniProt Q38838 1-221)”, the binding result is “no binding” in experiment [1]; “binds” in [2]; “no binding” in experiment [3]; “no binding” in experiment [4]; “binds” in [5]; “binds” in experiment [6]. For the same substance, the binding result is reported as “no binding” in experiment [7]; “binds” in [8]; “no binding” in [9]; “no binding” in experiment [10]; “no binding” in experiment [11]; “no binding” in experiment [12]. Moreover, the binding result in experiment [13] is on record as “no binding”; in experiment [14], “no binding”; in experiment [15], “binds”.
As to AP1 I66V (from UniProt P35631 1-256), the binding result in experiment [1] is given as “no binding”; in [2] it was “binds”; in experiment [3], “no binding”; in experiment [4], “no binding”; in experiment [5], “no binding”; in experiment [6], “binds”. Besides, the binding entry is “no binding” in [7]; “no binding” in [8]; “no binding” in experiment [9]; “no binding” in [10]; “binds” in experiment [11]; “no binding” in experiment [12]. Also, the binding result in experiment [13], in [14] and in [15] was “no binding” in each case.
Regarding “AP1 I66V/Y148N (from UniProt P35631 1-256)”, the binding result in experiment [1], in [2], in [3], in [4], in experiment [5] and in [6] was “no binding” in each case. Besides, the binding result in [7], in experiment [8], in experiment [9], in [10], in experiment [11] and in experiment [12] was “no binding” each time. Moreover, the binding result in experiment [13], in experiment [14] and in experiment [15] was “no binding” each time.
In the case of AP1 Y148N (from UniProt P35631 1-256), the binding result in [1] is on record as “no binding”; in experiment [2], “binds”; in experiment [3], “no binding”; in [4] it was “no binding”; in experiment [5] it was “no binding”; in [6], “binds”. Also, the binding result in [7] is on record as “no binding”; in experiment [8], “binds”; in [9], “no binding”; in experiment [10], “no binding”; in [11], “binds”; in experiment [12], “no binding”. For the same substance, the results for the binding entry in experiment [13], in experiment [14] and in [15] were “no binding”, “no binding” and “binds”, respectively.
With APETALA1 (from UniProt P35631 1-256), the binding entry was “no binding” in [1]; “binds” in experiment [2]; “no binding” in experiment [3]; “no binding” in experiment [4]; “no binding” in [5]; “binds” in experiment [6]. Moreover, the binding entry in experiment [7] is “binds”; in [8], “binds”; in [9] it was “no binding”; in experiment [10], “binds”; in experiment [11], “binds”; in [12], “no binding”. Further, the binding result in experiment [13] is recorded as “binds”; in [14], “no binding”; in [15] it was “binds”.
Regarding CAL N150Y (from UniProt Q39081 1-255), the binding entry in experiment [1] is on record as “binds”; in experiment [2], “binds”; in experiment [3], “no binding”; in [4] it was “no binding”; in experiment [5], “no binding”; in [6] it was “binds”. For the same substance, the binding result in experiment [7] is on record as “no binding”; in experiment [8], “binds”; in experiment [9], “binds”; in experiment [10], “no binding”; in [11], “binds”; in [12], “no binding”. Also, the binding entry in experiment [13] is “no binding”; in experiment [14], “binds”; in [15] it was “binds”.
With CAL V66I (from UniProt Q39081 1-255), the binding entry in experiment [1] is recorded as “no binding”; in experiment [2], “binds”; in experiment [3], “no binding”; in experiment [4] it was “no binding”; in experiment [5] it was “binds”; in experiment [6], “binds”. In addition, the binding entry is “no binding” in experiment [7]; “binds” in [8]; “no binding” in experiment [9]; “no binding” in experiment [10]; “binds” in experiment [11]; “no binding” in [12]. Besides, the binding result in experiment [13] is recorded as “no binding”; in [14], “no binding”; in experiment [15], “binds”.
